Targets with the largest changes are over-represented here; the source holds about 21,000 in all.

Compound in this test: CC1Cc2ccccc2N1C(=O)C1CCCN(C1)C(=O)CCl (mixture of isomers) [TRIM25 ligand 11 (diastereomer mixture)]
As to the kind of experiment: probe-labelled cysteine peptide fold change vs DMSO (competition) (log2 fold change); higher = less target engagement (more negative = stronger competition). The conditions noted are these: THP-1, incubation time: 4 h.
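Also: competitive chemoproteomic profiling in live THP-1 cells with an iodoacetamide desthiobiotin (IA-DTB) probe, comparing probe-labelled peptide intensities in compound-treated cells against DMSO-treated controls.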

With “HNRNPDL_O14979_177_FGEVVDCTIKTDPVTGR (UniProt O14979)”, the “probe-labelled cysteine peptide fold change” value runs as follows: (10 µM) -0.7; (50 µM) -0.524.
Taken in the same sequence, the figures for “GLG1_Q92896_385_CNVENLPR (UniProt Q92896)” were 0.0203 and 0.0958.
For the target “GPSM3_Q9Y4H4_116_ATFYTPQNPSSLAPAPLRPLEDREQLYSTILSHQCQR (UniProt Q9Y4H4)”, the “probe-labelled cysteine peptide fold change” value was -0.1 (10 µM) and -0.12 (50 µM).
Regarding “HSD11B1_P28845_241_EECALEIIK (UniProt P28845)”, the “probe-labelled cysteine peptide fold change” value (10 µM) was -0.0158 and the “probe-labelled cysteine peptide fold change” value (50 µM) was -0.0683.
Taken in the same sequence, the figures for HLA-DRA_P01903_188_FHYLPFLPSTEDVYDCR were 0.221 and 0.324.
The matching figures for “HSD17B11_Q8NBQ5_94_VHTFVVDCSNR (UniProt Q8NBQ5)”: 0.0849 and 0.11.
On to “GCLM_P48507_194_PNSNQVNLASCCVMPPDLTAFAK (UniProt P48507)”, for which the “probe-labelled cysteine peptide fold change” value is, setting by setting: (10 µM) 0.599; (50 µM) 0.0964.
The matching figures for “GSTK1_Q9Y2Q3_176_ETTEAACR (UniProt Q9Y2Q3)”: -0.0478 and -0.177.
As for “GPHN_Q9NQX3_154_GSQECFQFILPALPHAIDLLR (UniProt Q9NQX3)”, the “probe-labelled cysteine peptide fold change” value is -0.257 (10 µM) and -0.215 (50 µM).
In the case of “GNA15_P30679_345_LFSHYTCATDTQNIR (UniProt P30679)”, the “probe-labelled cysteine peptide fold change” value is -0.0387 (10 µM) and 0.226 (50 µM).
“HEATR1_Q9H583_1942_LLTFYNLADCIAEK (UniProt Q9H583)”: the “probe-labelled cysteine peptide fold change” value runs as follows: (10 µM) -0.106; (50 µM) 0.2.
Consider “HSPA4L_O95757_38_CTPACISLGSR (UniProt O95757)”, for which the “probe-labelled cysteine peptide fold change” value by setting is: (10 µM) 0.129; (50 µM) 0.177.
In the case of “GMPR2_Q9P2T1_224_GHIISDGGCSCPGDVAK (UniProt Q9P2T1)”, the “probe-labelled cysteine peptide fold change” value runs as follows: (10 µM) 0.0994; (50 µM) 0.0252.
In the case of “H2AFY_O75367_297_NCLALADDKK (UniProt O75367)”, the “probe-labelled cysteine peptide fold change” value was -0.0509 (10 µM) and -0.000868 (50 µM).
“GNPAT_O15228_478_VDSGDSEVVDGLMLQHITLLMCSAYR (UniProt O15228)”: the “probe-labelled cysteine peptide fold change” value reads like this: (10 µM) 0.238; (50 µM) 0.274.
For the target “GEMIN2_O14893_63_RVQIEAAQCPDVVVAQIDPK (UniProt O14893)”, the “probe-labelled cysteine peptide fold change” value by setting is: (10 µM) -0.176; (50 µM) -0.153.
In the case of “GRIPAP1_Q4V328_581_DQLEQAQEERDCHLK (UniProt Q4V328)”, the “probe-labelled cysteine peptide fold change” value (10 µM) is -0.117 and the “probe-labelled cysteine peptide fold change” value (50 µM) was -0.0237.
In the case of “HDDC2_Q7Z4H3_145_QLDQCEMILQASEYEDLEHKPGR (UniProt Q7Z4H3)”, the “probe-labelled cysteine peptide fold change” value is, setting by setting: (10 µM) -0.122; (50 µM) -0.224.
Turning to “HIKESHI_Q53FT3_4_MFGCLVAGR (UniProt Q53FT3)”, the “probe-labelled cysteine peptide fold change” value by setting is: (10 µM) -0.101; (50 µM) 0.2.
Take “HACL1_Q9UJ83_261_GVVPDNHPYCVGAAR (UniProt Q9UJ83)”: the “probe-labelled cysteine peptide fold change” value (10 µM) was -0.0211 and the “probe-labelled cysteine peptide fold change” value (50 µM) is -0.0859.
The matching figures for “GSR_P00390_278_SFDSMISTNCTEELENAGVEVLK (UniProt P00390)”: -0.0284 and -0.106.
Taken in the same sequence, the figures for “GCC2_Q8IWJ2_257_ELMCQIEASAK (UniProt Q8IWJ2)” were -0.27 and -0.449.
For “GMPPA_Q96IJ6_118_DQILAGSPEAFFVLNADVCSDFPLSAMLEAHRR (UniProt Q96IJ6)”, the “probe-labelled cysteine peptide fold change” value runs as follows: (10 µM) 0.715; (50 µM) 0.22.
With “GBF1_Q92538_1588_LDALEWESCFNK (UniProt Q92538)”, the “probe-labelled cysteine peptide fold change” value reads like this: (10 µM) -0.0828; (50 µM) -0.0679.
Take “HNRNPU_Q00839_450+453_PLFPHVLCHNCAVEFNFGQK (UniProt Q00839)”: the “probe-labelled cysteine peptide fold change” value turned out to be 0.0361 (10 µM) and 0.157 (50 µM).
As for “HK2_P52789_823_EVCTVVAR (UniProt P52789)”, the “probe-labelled cysteine peptide fold change” value by setting is: (10 µM) -0.0265; (50 µM) 0.0669.
On to “GNL3_Q9BVP2_251_LLGGFQETCSK (UniProt Q9BVP2)”, for which the “probe-labelled cysteine peptide fold change” value is, setting by setting: (10 µM) 0.0408; (50 µM) -0.0829.
As for “HSP90AA1_P07900_597_LVTSPCCIVTSTYGWTANMER (UniProt P07900)”, the “probe-labelled cysteine peptide fold change” value (10 µM) is -0.00873 and the “probe-labelled cysteine peptide fold change” value (50 µM) is -0.167.
With “GTSE1_Q9NYZ3_478_AQRPQSCTSVGR (UniProt Q9NYZ3)”, the “probe-labelled cysteine peptide fold change” value came to 0.0636 (10 µM) and 0.139 (50 µM).
Take “HAUS3_Q68CZ6_3_SCGNEFVETLK (UniProt Q68CZ6)”: the “probe-labelled cysteine peptide fold change” value by setting is: (10 µM) 0.0288; (50 µM) 0.169.
With “GGA2_Q9UJY4_93_EALYALTVLEMCMNHCGEK (UniProt Q9UJY4)”, the “probe-labelled cysteine peptide fold change” value worked out at 0.045 (10 µM) and 0.109 (50 µM).
The matching figures for “HERC1_Q15751_3818_DVLVVNCTAEWAAANHVLATCR (UniProt Q15751)”: 0.14 and 0.145.
Take “HSD17B7_P56937_32_LLAEDDELHLCLACR (UniProt P56937)”: the “probe-labelled cysteine peptide fold change” value reads like this: (10 µM) -0.00354; (50 µM) 0.135.
“HNRNPC_P07910_46_IVGCSVHK (UniProt P07910)”: the “probe-labelled cysteine peptide fold change” value is 0.221 (10 µM) and 0.132 (50 µM).
In the case of “HRAS_P01112_80_TGEGFLCVFAINNTK (UniProt P01112)”, the “probe-labelled cysteine peptide fold change” value is, setting by setting: (10 µM) -0.0742; (50 µM) 0.0625.
Take “GLCCI1_Q86VQ1_445_QPISAPLFSCPDK (UniProt Q86VQ1)”: the “probe-labelled cysteine peptide fold change” value (10 µM) is -0.198 and the “probe-labelled cysteine peptide fold change” value (50 µM) was -0.217.

The values are drawn from the supplement of paper PMC12067093, “Discovery and optimisation of a covalent ligand for TRIM25 and its application to targeted protein ubiquitination” (Chemical Science, 2025).
